The subject of this data set is ATP. In words: switch fluorescence ratio, 500 uM ATP over buffer (Cy3 cluster intensity, sum of 5 cycles each) (fold (ratio)); higher = stronger signal-on switching upon ATP binding; sequences stand for … in TCGTCGGCAGCGTCAGATGTGTATAAGAGACAGTTTTTTTTTTTTTTTTTTTTTTTTT…TC. The note with it: aptamer strand: ATP DNA aptamer (quencher-CACCTGGGGGAGTATTGCGGAGGAAGG + anchor), 100 nM annealed; ATP concentration: 500 uM; one replicate. The essentials: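 Per cluster, summed Cy3 intensity from the target cycles was divided by that from the buffer cycles to give the fluorescence ratio, then averaged per switch-domain sequence. Clusters outside 100-1000 RFU were excluded. The Cy3-labelled switching-strand clusters, on a modified Illumina MiSeq flow-cell, were annealed to 100 nM quencher-labelled ATP aptamer and imaged in selection buffer, then after 15 min with 500 uM ATP at 22 °C, for five cycles with NaOH stripping and re-annealing between them.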

Sequences with one replicate were seen in a single cluster, so their values are uncertain.
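Also: ATP exposure 15 min at 22 °C before imaging.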

In the case of TTTTGCCGTG, the switch fluorescence ratio stood at 0.964. Take TAATACGGAA: the switch fluorescence ratio turned out to be 1.19. With GCGGTCATGA, the switch fluorescence ratio came to 0.986. Consider TACGGCATTG, for which the switch fluorescence ratio came to 1.01. Take GCTATAGGCG: the switch fluorescence ratio was 1.02. As to TTCCTGCCCA, the switch fluorescence ratio was determined as 1.12. For the sequence TCGTGATCGC, the switch fluorescence ratio turned out to be 1.01.

As to AACGCCCCAC, the switch fluorescence ratio stood at 1.54. In the case of AAGCCGGAAT, the switch fluorescence ratio was found to be 1.07. As to GCTCTTAATT, the switch fluorescence ratio was determined as 0.981. To TTGCGTCTAC belongs 1; to GCGGGGAACG, 1.02. As to TTGAGGACA, the switch fluorescence ratio was 1.01. As for TAACGCTAAG, the switch fluorescence ratio was found to be 1.03. Regarding GCCGAGCGTC, the switch fluorescence ratio is 1.06. Under TTCCGGGATA stands 1.31; under TTTAAGTTCC, 1.05. For AATCGGTCAA, the switch fluorescence ratio was determined as 1.05. On to TTTAGAATAA, for which the switch fluorescence ratio was found to be 1.01. In the case of GAATCGGGCC, the switch fluorescence ratio was found to be 0.977.

Take TAGAAGCGTT: the switch fluorescence ratio is 0.967. For TTAGTCACAT, the switch fluorescence ratio was 1.13. In the case of AACCTGGTTT, the switch fluorescence ratio is 1.03. In the case of TGAATGCGCG, the switch fluorescence ratio came to 1.05.

Consider CTACCATAAT, for which the switch fluorescence ratio worked out at 1.07. As to GGTTAAGGTA, the switch fluorescence ratio stood at 1.

On to TGGTATCTGT, for which the switch fluorescence ratio worked out at 0.989. Under CATGTCGTT stands 1.02; under TCAAGCAACA, 1.14; under CAATAATGCG, 1.02. Turning to CCGACGTGTA, the switch fluorescence ratio worked out at 6.67. For the sequence TCTTCTAACT, the switch fluorescence ratio was 0.998. As to AGAGGGTCGA, the switch fluorescence ratio was found to be 1.01. As to CATTTAGAGC, the switch fluorescence ratio worked out at 1.03. As for ATGCGTGGGA, the switch fluorescence ratio turned out to be 0.989.

With GGCTTACATC, the switch fluorescence ratio is 0.99. Under CACCGGGTCA stands 1.03. Turning to TTTTTGCGAC, the switch fluorescence ratio is 2.11.

With TCCGTCATTT, the switch fluorescence ratio came to 1.16.

As for TGGTACCTAT, the switch fluorescence ratio is 1.03.

As for AACATTTGCA, the switch fluorescence ratio was 1.03.

GGTTCACTCG: the switch fluorescence ratio was determined as 1.1. Take GCATGGATCT: the switch fluorescence ratio turned out to be 0.982. Regarding GTCGAACGGT, the switch fluorescence ratio turned out to be 0.993. For the sequence AGATGTCCAC, the switch fluorescence ratio was determined as 1.01.

With CTCAGCAGTG, the switch fluorescence ratio is 1.33. To AACAAAGCAT belongs 1.04. As for AGGTTAGGCA, the switch fluorescence ratio is 0.987.

Take AGATTAGTG: the switch fluorescence ratio is 0.984. On to TATCGTGTGG, for which the switch fluorescence ratio is 1.02. To CGTTTTATT belongs 1.02; to GGCGGCGATA, 1.04; to TATAATGAGA, 1.01. In the case of CAGCGAAAAT, the switch fluorescence ratio worked out at 1.02. Consider GAGTGTGAAT, for which the switch fluorescence ratio was determined as 0.992. As to TCCAGCTTT, the switch fluorescence ratio was 0.994. To CGGGGCAAGT belongs 1.07; to TTAACTATGC, 1.01. GCATTTATTT: the switch fluorescence ratio stood at 1.01. On to CCCTGAGACA, for which the switch fluorescence ratio came out at 1.04. Turning to TAGACTGCTC, the switch fluorescence ratio amounted to 1.09.

Consider TCACAGCTTA, for which the switch fluorescence ratio was 0.997. With TCCATGCTGT, the switch fluorescence ratio was 1. For GGACGCCGTT, the switch fluorescence ratio turned out to be 0.962. GGAATTAGT: the switch fluorescence ratio is 0.986.

For the sequence CCGCGTGCAG, the switch fluorescence ratio was 1.05. As to GGAAGAATTC, the switch fluorescence ratio came out at 0.968.

For the origin of these results see the supplement of paper PMC10126150.
